Test results as given in PubChem BioAssay AID1768 (National Center for Advancing Translational Sciences (NCATS), 2009).
About 620 (0.23%) of roughly 270,000 compounds were called active. This list was built around the results that the source calls inconclusive (neither active nor inactive); the mix of calls is not that of the screen. The call rests on the fitted dose curve; in most records, active means well fitted inhibition curve with a large enough effect in the polarisation, with a control signal flat (not every such curve was filed as active); inconclusive means small, poorly fitted or top-dose-only effect, or effect the other way, or a change in a side signal; inactive means no such curve, though single readings can be large or run the other way; the % refers to the polarisation. A potency beside an inconclusive call is a rough fit, not a confirmed value. A note “side channel” means that the fit belongs to a control or component signal, not to the main read-out.

molecular target: Menin (Homo sapiens) (UniProt O00255); experiment: qHTS Assay for Inhibitors Targeting the Menin-MLL Interaction in MLL Related Leukemias: Competition With Texas Red Labeled MLL-derived Mutant Peptide; settings: fluorescence polarization; series mostly up to 61.6 µM
Sequence of UniProt O00255 (O00255 whole entry, looked up): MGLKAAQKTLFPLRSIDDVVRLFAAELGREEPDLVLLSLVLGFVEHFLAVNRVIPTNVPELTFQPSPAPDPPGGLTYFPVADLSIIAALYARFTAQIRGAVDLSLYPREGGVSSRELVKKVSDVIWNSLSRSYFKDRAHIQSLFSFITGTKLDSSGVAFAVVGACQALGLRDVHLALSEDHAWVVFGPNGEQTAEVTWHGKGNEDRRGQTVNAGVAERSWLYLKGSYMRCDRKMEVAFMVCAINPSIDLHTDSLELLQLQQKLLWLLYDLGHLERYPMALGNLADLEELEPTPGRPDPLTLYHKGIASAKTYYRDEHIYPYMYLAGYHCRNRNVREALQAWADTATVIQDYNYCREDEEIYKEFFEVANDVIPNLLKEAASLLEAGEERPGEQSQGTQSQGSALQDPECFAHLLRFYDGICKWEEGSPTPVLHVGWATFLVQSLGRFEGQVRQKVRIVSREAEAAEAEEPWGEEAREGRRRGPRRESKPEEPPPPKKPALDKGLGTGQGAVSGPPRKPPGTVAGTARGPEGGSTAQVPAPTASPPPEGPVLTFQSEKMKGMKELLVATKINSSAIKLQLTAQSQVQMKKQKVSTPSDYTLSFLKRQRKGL
Potency means the concentration at half of the fitted maximal effect; tags describe the fitted curve by direction and shape or compound fluorescence and quenching.

Structure (SMILES)	Potency
N#Cc1cccc(NC(=O)Nc2cccs2)c1	inconclusive: 15.8 µM [quencher, side channel, partial curve]
O=C(Nc1ccc2snnc2c1)Nc1cccc2ccccc12	inconclusive: 11.2 µM [quencher, side channel, partial curve]
Cc1cccn2cc(CNC(=O)CC3CCCC3)nc12	inactive
CCOC(=O)c1sc(C)c2c1NC1(CCCCC1)NC2=O	inactive
COc1cccc(OC)c1C(=O)OCC(=O)Nc1ccc(OC(F)(F)F)cc1	inconclusive: 31.6 µM [fluorescent, side channel, single point]
COc1ccc(OC)c(NC(=O)CCN2CCN(C/C=C/c3ccccc3)CC2)c1	inconclusive: 8.91 µM [inhibitor, partial curve]
CCc1ccccc1NC(=O)Nc1cccn(Cc2ccc(F)cc2)c1=O	inconclusive: 39.8 µM [quencher, side channel, partial curve]
CC(C)c1ccc(NC(=O)c2ccc3c(c2)C(=O)N(Cc2cccnc2)C3=O)cc1	inactive
COc1ccc(/C=C/C(=O)Nc2ccccc2)cc1OC	inconclusive: 14.1 µM [quencher, side channel, partial curve]
O=C1c2ccccc2NC(c2ccc(Cl)cc2Cl)N1O (centres undefined)	inactive
Cc1cccc(S(=O)(=O)c2c(N)n(/N=C/c3ccco3)c3nc4ccccc4nc23)c1	inconclusive: 10 µM [quencher, side channel, partial curve]
CCCCCCc1cc2cc(S(=O)(=O)c3ccc(F)c(Cl)c3)c(=O)oc2cc1O	inconclusive: 15.8 µM [quencher, side channel, partial curve]
CC(=O)C1=C(O)C(=O)N(Cc2ccccc2)C1c1ccc(Br)cc1 (centres undefined)	inconclusive: 15.8 µM [quencher, side channel, partial curve]
CCOC(=O)Cn1c(-c2ccccc2)cc(SC)c(C#N)c1=O	inconclusive: 39.8 µM [fluorescent, side channel, single point]
COc1cc(NC(=O)CSc2nnc(-c3cc(C)on3)o2)cc(OC)c1	inconclusive: 0.355 µM [inhibitor, full curve, poor fit]
N#C/C(=C\c1ccc(OC(=O)c2cccs2)cc1)c1nc2ccccc2[nH]1	inconclusive: 3.55 µM [quencher, side channel, partial curve]
CCn1c(SCc2ccc(Cl)cc2Cl)nc2nc3c(cc2c1=O)CCCC3	inconclusive: 2.82 µM [inhibitor, partial curve]
COc1ccc2c(c1)O[C@H](c1ccc3c(c1)OCO3)[C@@H](OC(=O)NCCOc1ccccc1)C2=O	inactive
CN1/C(=C\C(=S)Nc2ccccc2)C(C)(C)c2ccccc21	inconclusive: 15.8 µM [fluorescent, side channel, partial curve]
Oc1ccc(-c2csc(Nc3ccccn3)n2)cc1	inconclusive: 12.6 µM [quencher, side channel, partial curve]

Structure (SMILES)	Potency
NC(=O)c1ccsc1NC(=O)COC(=O)Cc1cccc2ccccc12	inconclusive: 28.2 µM [quencher, side channel, partial curve]
Cc1cc(Oc2ccc(C(C)(C)C)cc2)nc(N2CCOCC2)n1	inconclusive: 20 µM [fluorescent, side channel, partial curve]
CC(OC(=O)c1oc2ccccc2c1CSC1CCCCC1)C(=O)NC(N)=O (centres undefined)	inconclusive: 39.8 µM [fluorescent, side channel, single point]
COc1ccc2nc(C)cc(SCC(=O)N/N=C/c3ccc(O)cc3O)c2c1	inconclusive: 8.91 µM [quencher, side channel, full curve, poor fit]
COc1cc(/C=C2\CCCc3c2nc2ccccc2c3C(=O)O)cc(Cl)c1O	inactive
COc1ccc(C(C)(C)C)cc1NC(=O)c1[nH]c(C)c(C(C)=O)c1C	inactive
COc1ccc(-c2[nH]ncc2CNCCc2ncccc2C)cc1F	inconclusive: 3.55 µM [inhibitor, partial curve]
CC(=O)OCCNc1cc(SCc2ccco2)c2nonc2c1[N+](=O)[O-]	inconclusive: 17.8 µM [quencher, side channel, partial curve]
CC1(C)CC1C(=O)N/C(=C/CCCCSCC(N)C(=O)O)C(=O)O (centres undefined)	inactive
CCCc1nc(SCC(=O)Nc2nccs2)c2ccccc2n1	inconclusive: 20 µM [inhibitor, single point]
COc1ccc(-c2csc(Nc3cc(C)ccn3)n2)cc1C	inconclusive: 11.2 µM [quencher, side channel, partial curve]
O=[N+]([O-])c1nn(-c2ccc3c(c2)OCCO3)n(O)c1=Nc1ccc(Cl)cc1	inconclusive: 20 µM [quencher, partial curve]
O=S(=O)(NC(=NC1CCCCC1)c1ccccc1)c1ccc(F)cc1	inconclusive: 17.8 µM [inhibitor, partial curve]
O=C(NCc1ccc2c(c1)OCO2)C1CC(c2ccc(Cl)cc2)=NO1 (centres undefined)	inconclusive: 39.8 µM [fluorescent, single point]
Cc1ccc(C(=O)O)cc1NC(=S)NC(=O)c1ccc(-c2ccccc2)cc1	inconclusive: 12.6 µM [quencher, side channel, partial curve]
CCN(CC)c1ccc(C(=O)OCc2cc(=O)oc3cc(O)ccc23)cc1	inconclusive: 39.8 µM [inhibitor, single point]
Oc1c(C(Nc2nc3ccccc3s2)c2ccco2)ccc2cccnc12 (centres undefined)	inconclusive: 22.4 µM [quencher, side channel, partial curve]
COc1ccc(Cl)cc1-c1nc(-c2ccc(NC(=O)c3cccs3)cc2)no1	inconclusive: 0.708 µM [quencher, side channel, full curve, poor fit]
O=C(Nc1ccccc1-c1nc2ccccc2[nH]1)c1ccc(S(=O)(=O)N2CCCCC2)cc1	active: 10 µM
